Results published in PubChem BioAssay AID686970 (National Center for Advancing Translational Sciences (NCATS), 2013).
In all, about 360,000 compounds went through this assay and about 6,000 (1.7%) were called active. The shares of active, inactive and inconclusive entries below differ from those in the screen. Calls come from the whole dose curve; as a rule, active = well fitted cell-killing curve with a large enough effect; inconclusive = small, poorly fitted or top-dose-only effect, or effect the other way; inactive = flat fitted curve, though single readings scatter. Potencies of inconclusive entries are left out as doubtful fits.

Assay: qHTS for induction of synthetic lethality in tumor cells producing 2HG: qHTS for the HT-1080-NT fibrosarcoma cell line;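 note: NT is the 2HG producing partner of a matched IDH1 knockdown line; nearly all actives have a fitted effect of over 55% in size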;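 for activity, negative = less viability: 0% = DMSO-treated cells and -100% = media-only wells without cells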
Settings: HT-1080-NT fibrosarcoma viability, CellTiter-Glo ATP luminescence, 48 h; activity, negative = less viability: at 46.1 µM (top of the series) unless noted
Method in brief: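 Toxicity toward the 2HG-producing NT line was scored as %Activity, normalised to DMSO and no-cell wells, from CellTiter-Glo luminescence after 48 hours' treatment.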
Potency is the fitted concentration of half-maximal effect; tags give direction and shape of the fitted curve.

SMILES | Potency | activity, negative = less viability
Cc1cc(C(=O)OCC(=O)N2CCc3ccccc32)c(C)o1 | inconclusive [rising, partial curve, poor fit] | –
COc1ccc(N(CC(=O)NCc2ccco2)S(=O)(=O)c2ccc(OC)c(OC)c2)cc1 | – | inactive: -1.14%
COc1ccc2oc(=O)c(-c3csc(Nc4ccc(O)cc4)n3)cc2c1 | inconclusive [cytotoxic, single point] | –
O=C(c1nn2c(C(F)(F)F)cc(-c3ccco3)nc2c1Br)N1CCCc2ccccc21 | active: 23.1 µM | –
CN(Cc1ccccc1)C(=O)CN1CCN(C(c2ccccc2)c2ccccc2)CC1 | inconclusive [cytotoxic, single point] | –
COc1ccc(C(C)(NC(C)=O)c2nc(-c3ccc(F)c(Cl)c3)cs2)cc1 (stereo not given) | inconclusive [cytotoxic, single point] | –
Cc1csc2nc(O)c(C(=O)NC3CCCCC3C)c(=O)n12 (stereo not given) | – | inactive: -16.1%
CCOC(=O)c1c(C)[nH]c(C(=O)COC(=O)CCNS(=O)(=O)c2ccc(NC(C)=O)cc2)c1C | – | inactive: 9.67%
COc1ccc(CCNC(=O)c2ccc(NC(=O)CC3SC(N4CCCCC4)=NC3=O)cc2)cc1 (stereo not given) | – | inactive: -3.35%
CCc1ccc2nc3nc(C)cc(C)c3c(N)c2c1 | inconclusive [cytotoxic, single point] | –
O=C(CN1C(=O)c2cccc3cccc1c23)Nc1cccnc1 | – | inactive: -0.521%
O=C(Nc1ccnn1C1CCN(C(=O)c2cccnc2)CC1)c1cccc(F)c1 | – | inactive: 6.73%
Cc1occc1C(=O)NNS(=O)(=O)c1ccc([N+](=O)[O-])cc1 | – | inconclusive: 30.3%
CCC(C)(C)n1nnnc1C(C(C)C)N(CCN1CCOCC1)Cc1cc2cccc(C)c2[nH]c1=O (stereo not given) | – | inactive: -0.845%
CC(=O)Nc1cc(-c2ccccc2Cl)cn2c(-c3ccc(S(C)(=O)=O)cc3)cnc12 | inconclusive [cytotoxic, partial curve, poor fit] | –
Nc1nc(=S)c2ncn([C@@H]3O[C@H](CO)[C@@H](O)[C@H]3O)c2[nH]1 | active: 1.46 µM | –
COCCCNCCCCOc1ccc(Br)cc1C | inconclusive [cytotoxic, single point] | –
CC(C)(C)/C=N/NC(=O)CNC(=O)c1ccc2c(c1)OCCO2 | inconclusive [rising, single point] | –
Nc1cccc(Oc2ccc3c(c2)C(=O)NC3=O)c1 | inconclusive [cytotoxic, single point] | –
CC1(C(=O)NCc2cccc(C(F)(F)F)c2)CCN1CCc1ccccc1 (stereo not given) | inconclusive [cytotoxic, single point] | –
